Laboratory results as given in the supplement of paper PMC12217912.
This is one part of the list. The full chains were built here from the parent and the listed change. Values near 0.05 are background.

B1: TEV protease; numbered along this chain (parent)
chain: MGESLFKGPRDYNPISSSICHLTNESDGHTTSLYGIGFGPFIITNKHLFRRNNGTLVVQSLHGVFKVKDTTTLQQHLVDGRDMIIIRMPKDFPPFPQKLKFREPQREERICLVTTNFQTKSMSSMVSDTSCTFPSGDGIFWKHWIQTKDGQCGSPLVSTRDGFIVGIHSASNFTNTNNYFTSVPKNFMELLTNQEAQQWVSGWRLNADSVLWGGHKVFMVKPEEPFQPVKEATQL

Variants of: B1
Test: raw area under fraction-flipped curve 0-4 h after induction (AUC4h, not background-subtracted), DNA-recorder readout of cleavage of the substrate (dimensionless); higher = more cleavage of the substrate by the protease variant
Conditions: temperature: 34 °C; time window: 0-4 h after rhamnose induction
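Also: Bxb1 expression induced with 0.2% (w/v) L-rhamnose at OD600 near 0.5, cultures sampled hourly, flipped fraction per protease–substrate barcode pair counted by paired-end Illumina sequencing.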

MGESLFKGPRDYNPISSSICHLTNESDGHTTSLYGIGFGPFIITNKHLFRRNNGTLVVQSLHGVFKVKDTTTLQQHLVDGRDMIIIRMPKDFPPFPQKLKFREPQREERICLVTTNFQTKSMSSMVSDTSCTFPSGDGIFWKHWIQTKDGQCGSPLVSTRDGFIVGIHSASNFTNTNNYFASVPKNFMELLTNQEAQQWVSGWRLNADSVLWGGHKVFMVKPEEPFQPVKEATQL [T181A]
area with substrate ENAYFQS: 0.0443 | area with substrate ENDYFQS: 0.0565 | area with substrate ENEYFQS: 0.0733 | area with substrate ENGYFQS: 0.087 | area with substrate ENNYFQS: 0.116 | area with substrate ENPYFQS: 0.0745 | area with substrate ENQYFQS: 0.0759 | area with substrate ENRYFQS: 0.0607 | area with substrate ENVYFQS: 0.104 | area with substrate ENWYFQS: 0.0813

MGESLFKGPRDYNPISSSICHLTNESDGHTTSLYGIGFGPFIITNKHLFRRNNGTLVVQSLHGVFKVKDTTTLQQHLVDGRDMIIIRMPKDFPPFPQKLKFREPQREERICLVTTNFQTKSMSSMVSDTSCTFPSGDGIFWKHWIQTKDGQCGSPLVSTRDGFIVGIHSASNFTNTNNYFYSVPKNFMELLTNQEAQQWVSGWRLNADSVLWGGHKVFMVKPEEPFQPVKEATQL [T181Y]
area with substrate ENAYFQS: 0.0501 | area with substrate ENCYFQS: 0.0536 | area with substrate ENDYFQS: 0.0763 | area with substrate ENFYFQS: 0.0555 | area with substrate ENGYFQS: 0.0466 | area with substrate ENHYFQS: 0.0524 | area with substrate ENIYFQS: 0.0644 | area with substrate ENKYFQS: 0.064 | area with substrate ENNYFQS: 0.0566 | area with substrate ENPYFQS: 0.0688 | area with substrate ENQYFQS: 0.06 | area with substrate ENRYFQS: 0.0715 | area with substrate ENVYFQS: 0.0529

MGESLFKGPRDYNPISSSICHLTNESDGHTTSLYGIGFGPFIITNKHLFRRNNGTLVVQSLHGVFKVKDTTTLQQHLVDGRDMIIIRMPKDFPPFPQKLKFREPQREERICLVTTNFQTKSMSSMVSDTSCTFPSGDGIFWKHWIQTKDGQCGSPLVSTRDGFIVGIHSASNFTNTNNYFTSEPKNFMELLTNQEAQQWVSGWRLNADSVLWGGHKVFMVKPEEPFQPVKEATQL [V183E]
area with substrate ENAYFQS: 0.0517 | area with substrate ENCYFQS: 0.0611 | area with substrate ENDYFQS: 0.0437 | area with substrate ENEYFQS: 0.0449 | area with substrate ENFYFQS: 0.0551 | area with substrate ENGYFQS: 0.03 | area with substrate ENHYFQS: 0.044 | area with substrate ENKYFQS: 0.0823 | area with substrate ENPYFQS: 0.0511 | area with substrate ENQYFQS: 0.0625 | area with substrate ENSYFQS: 0.0497 | area with substrate ENTYFQS: 0.0639

MGESLFKGPRDYNPISSSICHLTNESDGHTTSLYGIGFGPFIITNKHLFRRNNGTLVVQSLHGVFKVKDTTTLQQHLVDGRDMIIIRMPKDFPPFPQKLKFREPQREERICLVTTNFQTKSMSSMVSDTSCTFPSGDGIFWKHWIQTKDGQCGSPLVSTRDGFIVGIHSASNFTNTNNYFTSFPKNFMELLTNQEAQQWVSGWRLNADSVLWGGHKVFMVKPEEPFQPVKEATQL [V183F]
area with substrate ENAYFQS: 0.0505 | area with substrate ENCYFQS: 0.0624 | area with substrate ENEYFQS: 0.0547 | area with substrate ENGYFQS: 0.0792 | area with substrate ENHYFQS: 0.0626 | area with substrate ENIYFQS: 0.107 | area with substrate ENMYFQS: 0.083 | area with substrate ENNYFQS: 0.0711 | area with substrate ENPYFQS: 0.0621 | area with substrate ENQYFQS: 0.0717 | area with substrate ENSYFQS: 0.0629 | area with substrate ENTYFQS: 0.0675 | area with substrate ENVYFQS: 0.0721

MGESLFKGPRDYNPISSSICHLTNESDGHTTSLYGIGFGPFIITNKHLFRRNNGTLVVQSLHGVFKVKDTTTLQQHLVDGRDMIIIRMPKDFPPFPQKLKFREPQREERICLVTTNFQTKSMSSMVSDTSCTFPSGDGIFWKHWIQTKDGQCGSPLVSTRDGFIVGIHSASNFTNTNNYFTSYPKNFMELLTNQEAQQWVSGWRLNADSVLWGGHKVFMVKPEEPFQPVKEATQL [V183Y]
area with substrate ENAYFQS: 0.0622 | area with substrate ENCYFQS: 0.0543 | area with substrate ENDYFQS: 0.0551 | area with substrate ENEYFQS: 0.0564 | area with substrate ENFYFQS: 0.0434 | area with substrate ENGYFQS: 0.0719 | area with substrate ENKYFQS: 0.0553 | area with substrate ENNYFQS: 0.0581 | area with substrate ENQYFQS: 0.0513 | area with substrate ENRYFQS: 0.0578 | area with substrate ENSYFQS: 0.0596 | area with substrate ENVYFQS: 0.0581 | area with substrate ENWYFQS: 0.0516 | area with substrate ENYYFQS: 0.0383

MGESLFKGPRDYNPISSSICHLTNESDGHTTSLYGIGFGPFIITNKHLFRRNNGTLVVQSLHGVFKVKDTTTLQQHLVDGRDMIIIRMPKDFPPFPQKLKFREPQREERICLVTTNFQTKSMSSMVSDTSCTFPSGDGIFWKHWIQTKDGQCGSPLVSTRDGFIVGIHSASNFTNTNNYFTSVPENFMELLTNQEAQQWVSGWRLNADSVLWGGHKVFMVKPEEPFQPVKEATQL [K185E]
area with substrate ENAYFQS: 0.0909 | area with substrate ENCYFQS: 0.0645 | area with substrate ENEYFQS: 0.052 | area with substrate ENFYFQS: 0.0629 | area with substrate ENGYFQS: 0.0544 | area with substrate ENHYFQS: 0.0467 | area with substrate ENIYFQS: 0.157 | area with substrate ENNYFQS: 0.0548 | area with substrate ENPYFQS: 0.0549 | area with substrate ENQYFQS: 0.0532 | area with substrate ENRYFQS: 0.054 | area with substrate ENSYFQS: 0.0582 | area with substrate ENTYFQS: 0.0959 | area with substrate ENVYFQS: 0.086 | area with substrate ENYYFQS: 0.0544

MGESLFKGPRDYNPISSSICHLTNESDGHTTSLYGIGFGPFIITNKHLFRRNNGTLVVQSLHGVFKVKDTTTLQQHLVDGRDMIIIRMPKDFPPFPQKLKFREPQREERICLVTTNFQTKSMSSMVSDTSCTFPSGDGIFWKHWIQTKDGQCGSPLVSTRDGFIVGIHSASNFTNTNNYFTSVPFNFMELLTNQEAQQWVSGWRLNADSVLWGGHKVFMVKPEEPFQPVKEATQL [K185F]
area with substrate ENAYFQS: 0.0571 | area with substrate ENCYFQS: 0.0615 | area with substrate ENDYFQS: 0.0586 | area with substrate ENEYFQS: 0.0724 | area with substrate ENFYFQS: 0.0925 | area with substrate ENHYFQS: 0.0476 | area with substrate ENIYFQS: 0.112 | area with substrate ENKYFQS: 0.0568 | area with substrate ENMYFQS: 0.062 | area with substrate ENNYFQS: 0.0504 | area with substrate ENQYFQS: 0.0561 | area with substrate ENRYFQS: 0.0635 | area with substrate ENSYFQS: 0.0642 | area with substrate ENTYFQS: 0.0581 | area with substrate ENVYFQS: 0.0828 | area with substrate ENWYFQS: 0.0563 | area with substrate ENYYFQS: 0.0626

MGESLFKGPRDYNPISSSICHLTNESDGHTTSLYGIGFGPFIITNKHLFRRNNGTLVVQSLHGVFKVKDTTTLQQHLVDGRDMIIIRMPKDFPPFPQKLKFREPQREERICLVTTNFQTKSMSSMVSDTSCTFPSGDGIFWKHWIQTKDGQCGSPLVSTRDGFIVGIHSASNFTNTNNYFTSVPINFMELLTNQEAQQWVSGWRLNADSVLWGGHKVFMVKPEEPFQPVKEATQL [K185I]
area with substrate ENAYFQS: 0.0543 | area with substrate ENCYFQS: 0.0668 | area with substrate ENDYFQS: 0.055 | area with substrate ENGYFQS: 0.0737 | area with substrate ENHYFQS: 0.0559 | area with substrate ENIYFQS: 0.109 | area with substrate ENPYFQS: 0.056 | area with substrate ENQYFQS: 0.058 | area with substrate ENRYFQS: 0.0607 | area with substrate ENSYFQS: 0.0692 | area with substrate ENYYFQS: 0.0677

MGESLFKGPRDYNPISSSICHLTNESDGHTTSLYGIGFGPFIITNKHLFRRNNGTLVVQSLHGVFKVKDTTTLQQHLVDGRDMIIIRMPKDFPPFPQKLKFREPQREERICLVTTNFQTKSMSSMVSDTSCTFPSGDGIFWKHWIQTKDGQCGSPLVSTRDGFIVGIHSASNFTNTNNYFTSVPKEFMELLTNQEAQQWVSGWRLNADSVLWGGHKVFMVKPEEPFQPVKEATQL [N186E]
area with substrate ENAYFQS: 0.0524 | area with substrate ENDYFQS: 0.0521 | area with substrate ENGYFQS: 0.0681 | area with substrate ENIYFQS: 0.117 | area with substrate ENMYFQS: 0.082 | area with substrate ENPYFQS: 0.0412 | area with substrate ENQYFQS: 0.0587 | area with substrate ENSYFQS: 0.0961 | area with substrate ENTYFQS: 0.0653 | area with substrate ENVYFQS: 0.0747
